Source: the supplement of paper PMC3334620
In all, about 33,000 sequences were measured (“E-score (-0.5 to 0.5)”: median about -0.054, highest 2% from about 0.39 on). The list shows a part of the results.

What follows are sequences tested against Ylr278c (UniProt Q05854) (assay: PBM E-score (8-mer binding enrichment) (E-score (-0.5 to 0.5)); higher = stronger / more preferred TF binding; most listed sequences are background and not binding sites). Settings: protein concentration: 200 nM; construct: GST-DNA-binding domain.
In short: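 PURExpress in vitro transcription/translation supplied GST-tagged yeast transcription factors, either full-length or DNA-binding domain. Applied at about 100-200 nM to universal all-10-mer Agilent arrays double-stranded by primer extension, the bound protein was detected with fluorescent anti-GST. E-scores, modified Wilcoxon-Mann-Whitney statistics, were given by the Universal PBM Analysis Suite to ungapped eight-base words pooled with their reverse complements after masliner normalisation.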

Sequence | PBM E-score
GCCCGCGA | 0.147
GTCCTGGA | -0.221
AAAATCGG | 0.273
ACCTGTAT | -0.295
CCGCGTTC | 0.271
GACGATGA | 0.0474
GAAAAATC | 0.0882
GACGTTTA | -0.29
CTGTCTAC | -0.252
ACTGGCCG | 0.154
AGGATGTA | -0.128
ATAGAAGC | -0.141
CGTAGAAC | -0.0134
AACTCACC | -0.0252
ACAATCTC | 0.0492
GTTTGAGA | -0.321
CAGTACCG | 0.202
TAAGCAAA | -0.133
GCAACGGA | 0.328
GTAAGACA | -0.158
TATTTAAA | 0.00718
AATTGCAC | -0.054
AGTTCCAA | -0.0869
GGGACCGA | 0.164
GGTATTAC | 0.171

Sequence | PBM E-score
CGTACTGC | -0.115
AATACCCA | -0.04
AAACAAGG | -0.00275
CATTGGGG | -0.165
CAGGGTTC | -0.158
ATCCATTC | -0.0913
AAAGCGAA | 0.128
AGTCTAGG | -0.208
AGGGGCAA | 0.0321
AAGTGATG | -0.152
AGTGTTGA | -0.0127
GCACCGAA | 0.166
AATTCGAG | -0.187
CCATTTAA | -0.13
ATCCTTGG | -0.0145
AGAAAAAA | -0.179
CACTCAGC | -0.0426
ACTTCTCG | 0.0904
AACTCGTC | -0.233
GGATTCGA | 0.025
AAGTTGAG | -0.0256
AAGACTGT | -0.375
CAGGTCGA | -0.197
ACGAAACC | 0.0905
GACGTGCC | -0.0295

Sequence | PBM E-score
TCCCTGCA | -0.00909
AGGGGGTC | -0.267
ATGGCCTA | -0.118
ATTAACGG | 0.148
GTTGAGAA | -0.117
GTACTGCA | -0.0765
ACTGCTCT | -0.15
GTGTCAGA | -0.0878
GACCAATC | -0.0699
CCCGGGAG | 0.294
CTACATCC | 0.00841
CATAAGTC | 0.00355
CAGTACAC | -0.137
AATAGTGC | 0.116
GGACGTCC | 0.213
CCCCAACC | -0.0972
AGAAAGAC | -0.0833
GAAATGCC | 0.143
GATTTCGA | 0.0701
CAGAACAG | -0.00784
AGCGGTGA | 0.00074
ACTAAGAG | -0.0302
AGTAATAA | -0.217
CGCATGCA | 0.0625
AGGCCGTA | 0.0868

Sequence | PBM E-score
GAGCAGCC | -0.223
GTATGTCA | -0.122
CCTGCTAA | -0.232
GCGCACCA | 0.0803
AGCCGTAA | -0.0472
TCTAAACA | -0.204
ACTCTTCC | 0.0394
AACACTGG | -0.125
CGATGGAA | 0.078
ACAGCCAG | -0.249
ATTCATCA | -0.06
GAAGACCA | 0.0955
ATAAGAGC | -0.0736
GAGTAGAA | -0.015
ACGCGGCC | 0.0568
CGGAAGGC | 0.301
AGGTAGTA | -0.112
CAGCCCGA | 0.021
ACGCAGCG | -0.141
AGGAACAC | 0.0656
ATGCGACG | 0.0377
AGTCATTC | -0.108
CTTACGAA | -0.214
GAGGGCAA | 0.074
TACTGGCA | -0.212

Sequence | PBM E-score
CACCTAGA | -0.256
TACTCGGA | 0.342
AACCTACA | -0.118
AAGAGGAT | -0.197
ACAAGATC | -0.13
CTATGCAG | -0.166
AAAATTGT | 0.0605
GCACGGGA | 0.102
GACCTTTA | -0.0327
CTGCCCGC | 0.225
CGGTTATA | 0.0459
GAAGCGTA | 0.109
ACTGAGGC | 0.105
AATCTATC | -0.0207
AACTGGAT | 0.036
AATACTCC | 0.251
CAGTGCCC | -0.0369
CGTCGGGC | 0.2
GAACTAAC | 0.0163
CTTATCCC | 0.049
CCTTTCCA | -0.0997
GCCTCTAA | -0.263
CGATAACC | 0.211
GGTCAGAC | -0.267
ATCCATCA | -0.135

Sequence | PBM E-score
GGCGAGAC | -0.224
ATTTTGTC | 0.099
CAGTCGAA | -0.212
AAGTTATT | -0.0271
ACGCTAAA | -0.18
GGCCATCA | 0.00451
ACCTTCAT | 0.0238
GATCTGAA | -0.0719
ATAAAGTG | -0.0736
CCTAGGAA | 0.00058
GATGTCTA | -0.163
AATGGAAT | 0.0961
CCTTTACG | -0.0818
CTGAAGCC | -0.0673
CTGACTCA | -0.305
CAGTACGC | -0.00189
CAATGTGG | -0.166
ACTAGATA | -0.129
ATAGTTTC | -0.0564
AAACACGC | 0.0902
CAAGTAGG | -0.189
GACCTCTA | -0.231
GACGATCA | -0.132
ACGTCGCG | -0.0651
GTCATAAA | -0.103

Sequence | PBM E-score
GCTTTGGA | 0.141
AACATCGC | 0.0269
CAACTCCA | 0.0206
AATTGGAT | -0.126
ATTAAAAT | 0.00827
CTTATTCA | -0.178
TAATAAGA | -0.0688
CGGGACTC | 0.341
ATCCCTGG | -0.236
AGAAATAT | 0.0411
CGTCGAGA | -0.158
AATAACTA | -0.0897
GACGTGGC | -0.0942
CGGAGTAA | 0.468
CCATTAAG | -0.185
AAAACATT | -0.249
GCAATGAC | -0.246
CGGTAGTC | 0.195
TCCCACAA | -0.0305
ATGCAAGA | -0.214
GAAGTCTA | -0.143
ACCAGGCG | -0.0563
AGGATAAT | -0.138
AACATCTT | -0.026
AGCATCGA | -0.0845

Sequence | PBM E-score
TGTGCGAA | -0.173
AGTACCCA | -0.139
CTGCTCCC | -0.111
TCCTTAAA | -0.322
AAAAGCTA | -0.126
ATAAAGTA | -0.0961
CACCCTCA | -0.212
GGGTTTTA | 0.237
ACGCCCGG | 0.305
CGGGGCTA | 0.178
AAGTCTTG | -0.25
CTTTACTC | 0.00542
CATACATG | -0.233
CTCCAAGC | -0.15
GGGCGCGA | 0.186
AGAGGAAG | -0.211
CAGCCTCC | -0.0182
ATGTTACG | -0.168
ACTCGCAA | -0.172
CCCTCAGC | -0.0523
AAATCACG | 0.11
CCCGCGGC | 0.336
GGCCTCAA | -0.0423
AGCCCCGG | 0.378
GATCAACA | -0.246

Sequence | PBM E-score
CGTGAGAC | -0.0417
AAACCTGG | -0.0736
CACGAGCA | -0.168
TCCGCAGA | 0.317
ATCCGCGC | 0.251
AATCTCGG | 0.308
AACGGCAT | 0.245
ACAACAGT | 0.0333
CAGATGAC | -0.167
ACTCAAAC | -0.184
GACTTACC | 0.171
CTCAGCGC | 0.00585
GGGGGGTA | -0.057
AACAATTG | -0.197
GGCCCCCA | -0.135
CTACTAGC | 0.0383
ACGACCCC | 0.0131
GATGCTGA | -0.264
ACGGAAAG | 0.285
GACGCTAC | -0.0529
CTTACCAA | -0.152
CTATACCC | 0.0559
TGTCACAA | -0.0454
ACTAACCT | -0.075
CGGACGAG | 0.227

Sequence | PBM E-score
AATGAATA | -0.0622
GTACCGCA | 0.164
CCAACACG | -0.138
GCCTGTCC | -0.132
TCTTCACA | -0.145
CGCACAAC | 0.0103
ATCTCCGA | 0.478
ATGAAGCC | 0.0954
GTGATATA | -0.253
CACCTAGC | -0.1
ACTGAGTC | 0.0143
GGCCGCGA | 0.086
AGGAATTG | -0.0579
CCGAGTAG | 0.197
ATCCCGGG | 0.392
CAGCTGAA | -0.236
ACGCGTCA | -0.313
GTCTGACA | -0.042
TAACATCA | -0.308
ACCCAGGG | -0.13
GAATCCGC | 0.259
TAGGACGA | -0.0757
CCGACCGC | 0.195
AGACCGTG | -0.032
ACGTGAGC | -0.208

Sequence | PBM E-score
AGCTCGCC | 0.0362
GCATCACA | -0.209
GTCTTGCA | -0.0978
AATCTACT | -0.0131
GCATCGAA | -0.168
GCCTACAC | -0.186
CTGCGGGA | 0.111
ATTCGTGG | -0.222
TGCGTGAA | 0.101
CGAAACAG | -0.0457
CAGCTGTC | -0.166
AGGTGCAT | -0.123
GCTACCAC | -0.297
AACACCGA | 0.318
AAGGGGTA | -0.156
AACTCTCC | 0.169
AGACATGC | -0.196
CGCAGATC | 0.0117
CGACTACG | 0.115
CTGATACA | -0.163
AGCCACAC | -0.137
AAACTCAT | 0.0904
CGGCGCCG | 0.461
TAAACTCA | -0.0968
CGAGTCAA | -0.0521

Sequence | PBM E-score
ATGCATGA | 0.00566
CTAGACTC | -0.192
AAGCCTAA | -0.0334
ATACCGTC | 0.153
AAGTCTCC | -0.0296
CATGAGCA | -0.145
CAATTGTG | -0.153
AAGTCATT | -0.273
CAATGAGC | -0.0129
TATAAAAA | 0.114
AGAGGTAG | -0.215
CGGCGTCC | 0.361
CGAGCCCA | -0.139
AGTCGCCC | -0.0585
ACCGCTAC | 0.0541
CTCGAGAA | -0.239
AGTAGTTA | 0.00027
GTAAAACA | -0.193
AGTCGGAT | 0.282
CGCTATGA | 0.00533
ATGCTAGG | -0.12
GCTGGTAA | -0.0826
CGGCATCA | 0.14
CGTAATGA | -0.0824
ATAAGGAT | -0.161

Sequence | PBM E-score
ACAGCTTA | -0.187
CTTGAAGA | -0.237
ACTATACA | -0.199
CGAGGGTA | -0.0904
TAATATGA | 0.0234
TGATCCAA | 0.0223
ATTGCGTA | -0.158
AAGTGGCC | -0.0233
AAGTACTA | -0.0986
AATGACGT | -0.119
ATAGCTAT | -0.106
CATCCGCG | 0.197
ACTTTGAC | -0.203
ATGAAGCA | -0.15
GATTCCTA | 0.0559
ACTAGAAA | -0.106
AACCCAAC | -0.103
TAGTCCCA | -0.284
AGCGCATG | -0.142
CATTAGCG | -0.0197
AGCAGAAA | 0.0343
ATGCTCAG | -0.125
AGAGATGA | -0.129
CTCAATAC | -0.0294
GTTCATGA | -0.0154

Sequence | PBM E-score
GGTCAACA | -0.0909
CATTTTGC | 0.168
CATCAACC | 0.067
AACCAGCG | -0.0114
AGGGATAC | -0.253
GTTGCTGA | -0.0156
CCTTTTCC | 0.00074
ACAAACAC | 0.0607
GGAGATGA | 0.2
AAACGAAC | -0.078
CGCTACCA | 0.0112
TACGAGCA | -0.0633
CAACACCA | -0.159
GGTGATGA | 0.0127
CTTCATTA | -0.109
AGCTGACG | -0.284
GGACCAAC | 0.127
CGACATGA | 0.0506
TAGCTTCA | -0.278
